From PubChem BioAssay AID686979 (National Center for Advancing Translational Sciences (NCATS), 2013)
Values joined by “and” are separate entries in the source; they are usually repeats but may differ in a detail not shown here. Equal values may be shown once. Out of some 420,000 compounds screened, about 50,000 (12%) were called active. This list was built around the results that the source calls inconclusive (neither active nor inactive); the mix of calls is not that of the screen. The call rests on the fitted dose curve; in most records, active means well fitted inhibition curve with a large enough effect; inconclusive means small, poorly fitted or top-dose-only effect; inactive means flat fitted curve, though single readings scatter. Potencies of inconclusive entries are doubtful fits and often do not repeat.

Test: qHTS for Inhibitors of human tyrosyl-DNA phosphodiesterase 1 (TDP1): qHTS in cells in presence of CPT; further: nearly all actives have a fitted effect of over 55% in size
Conditions: chicken DT40 Tdp1-/-;hTDP1 cells + 20 nM CPT, ATP luminescence, 48 h; activity change, negative = growth inhibition: at 46.2 µM (top of the series) unless noted
How it was run: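 Chicken DT40 Tdp1-/- cells complemented with human TDP1, 400 cells/well, exposed to compounds plus 20 nM camptothecin for at least 48 h at 37 C; viability read as ATP content by CellTiter-Glo luminescence.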
On the % scale 0 is the no-effect control and ±100 the full control effect; potency means the concentration at half of the fitted maximal effect; tags describe the fitted curve by direction and shape.

SMILES	activity change, negative = growth inhibition	Potency
O=C(NCC1CC1)C1(C(F)(F)F)CC(CCCO)CCCO1 (stereo not given)	inactive: -4.13%	
COc1ccccc1NS(=O)(=O)c1cccc(C(=O)N/N=C/c2c(CO)cnc(C)c2O)c1		inconclusive: 25.9 µM [inhibitor, single point]
COCCN1CCN(c2c(C)c(C)nc3cc(-c4cccc(OC)c4)nn23)CC1		inconclusive: 0.92 µM [inhibitor, full curve]
Cc1c(C(=S)Nc2ccccc2)cnn1-c1ccc([N+](=O)[O-])cc1		active: 16.4 µM
CN(Cc1cccc(F)c1)C(=O)C1CC(=O)N(c2ccc3c(c2)OCCO3)C1 (stereo not given)		inconclusive: 16.4 µM [inhibitor, partial curve, poor fit]
COc1ccc(C(O)(CCN2CCOCC2)c2ccccc2)cc1 (stereo not given)	inactive: 3.45%	
O=C(CSc1nc2cc(Cl)ccc2s1)Nc1cccc(S(=O)(=O)N2CCOCC2)c1		inconclusive: 23.1 µM [inhibitor, single point]
COc1ccc(C(=O)C[n+]2cc(Br)cc3ccccc32)cc1		inconclusive: 22.4 µM [inhibitor, single point]
O=C(CN1C(=O)CC(c2ccccc2)S(=O)(=O)c2ccccc21)N1CCCC1 (stereo not given)	inactive: 7.89%	
O=C(/C=C/c1cn(CC(O)CN2CCCCC2)c2ccccc12)c1cccs1 (stereo not given)		inconclusive: 29.1 µM [inhibitor, single point]
CC1Cc2cc(S(=O)(=O)NCc3ccccc3)ccc2N1C(=O)C1CC1 (stereo not given)		inconclusive: 29.1 µM [inhibitor, single point]
CCc1ccccc1S(=O)(=O)Cc1ccc(C(=O)N2CCN(c3ccccn3)CC2)o1		inconclusive: 18.4 µM [inhibitor, single point]
COc1ccccc1OC1=NS(=O)(=O)c2ccccc21		active: 20.6 µM
Cc1cc(-c2ccccc2)n(-c2ccccc2)n1	inactive: -3.23%	
COc1ccc(C(=O)c2oc3ccc(OC)cc3c2N)cc1		inconclusive: 23.1 µM [inhibitor, single point]
Cc1noc(C)c1CS(=O)(=O)Cc1ccc(Cl)cc1	inactive: 2.45%	
CCOc1cc(-c2nn3cnnc3s2)cc(OCC)c1OCC		inconclusive: 18.4 µM [inhibitor, single point]
O=C(CN1C(=O)/C(=C\c2cccc(F)c2)Oc2ccccc21)N1CCN(c2ccccn2)CC1		inconclusive: 8.2 µM [inhibitor, partial curve]
Cc1cccc(NC(=O)CSCC(=O)Nc2nnc(C3CC3)s2)c1	inactive: 2.73%	
COc1ccc(CNC(=O)C(C)n2ccc3cc(S(=O)(=O)N4CCCC4)ccc32)cc1OC (stereo not given)		active: 0.291 µM
CCn1c(SCC(=O)N2CCN(c3ccccc3F)CC2)nnc1-c1ccoc1C		inconclusive: 29.1 µM [inhibitor, single point]
CC12CCC(=O)N1C(C(=O)NCCN1C(=O)S/C(=C\c3ccccc3F)C1=O)CS2 (stereo not given)		inconclusive: 18.4 µM [inhibitor, single point]
CCCCN(C(=O)c1ccc(-c2ccc(Cl)cc2)o1)c1c(N)n(CCCC)c(=O)[nH]c1=O		inconclusive: 29.1 µM [inhibitor, single point]
NC(c1csc(NC(=O)Nc2ccc(OC(F)(F)F)cc2)n1)C1CCCCC1 (stereo not given)		active: 10.3 µM
COc1ccc(NC(=O)c2ccc(-c3ccc(F)cc3)o2)cc1OC		active: 20.6 µM

SMILES	activity change, negative = growth inhibition	Potency
CCc1nc2c(OCC(=O)c3ccc(Cl)cc3Cl)cccn2c1N(C)C(=O)c1cccs1		active: 16.4 µM
Cc1ccc(S(=O)(=O)NCCC(=O)NC2CCC(C)CC2)cc1 (stereo not given)	inactive: -5.4%	
O=C(c1ccncc1)N(c1ccc2oc3c(c2c1)CCCC3)S(=O)(=O)c1cccc([N+](=O)[O-])c1	inactive: -25.6%	
COC(=O)c1c(NC(=O)Cc2cccs2)sc2c1CCC(C)C2 (stereo not given)		inconclusive: 29.1 µM [inhibitor, single point]
Cc1cc(C)cc(NS(=O)(=O)c2ccc3c(c2)CCCN3C(=O)C2CCC2)c1		active: 23.1 µM
COC(=O)c1sc(N)c(C(=O)OC)c1COC(=O)CNS(=O)(=O)c1ccc(C)cc1	inactive: -21.8%	
CC(C(=O)O)c1ccc2c(c1)Cc1cccnc1O2 (stereo not given)	inactive: -9.2%	
CN(CC(=O)Nc1ccc(F)cc1)C(=O)CN1C(=O)NC(CCc2ccccc2)C1=O (stereo not given)		active: 11.6 µM
CCc1cc2cc(C)ccc2nc1SCC(=O)N1CC(=O)Nc2ccccc21		inconclusive: 29.1 µM [inhibitor, single point]
Cn1cnc([N+](=O)[O-])c1Oc1ccccc1		active: 18.4 µM
CCc1ccc2oc(C(=O)Nc3nonc3CC)c(C)c2c1		inconclusive: 29.1 µM [inhibitor, single point]
CCN(CC)CCN(Cc1cc2ccc(C)cc2[nH]c1=O)C(=O)Nc1ccc(Cl)cc1		inconclusive: 4.11 µM [inhibitor, single point]
Cc1cc(NC(=O)CSc2nc(C(C)(C)C)nc3ccccc23)no1		inconclusive: 9.2 µM [inhibitor, partial curve]
COc1ccc2[nH]cc(C(=O)CCl)c2c1		active: 3.26 µM
O=C(Nc1ccc(Br)cc1F)c1ncoc1-c1ccco1	inactive: -23.5%	
CC(=O)N1CCCN(Cc2cn(-c3cccc(C)c3)nc2-c2cccc(F)c2)CC1		inconclusive: 20.6 µM [inhibitor, single point]
CCOC(=O)c1nn(-c2ccc(Cl)cc2)c2nc(Nc3ccccc3)cc(=O)n12		inconclusive: 18.4 µM [inhibitor, single point]
COc1ccccc1N1CCN(S(=O)(=O)c2ccc(NC(C)=O)cc2)CC1	inactive: -0.567%	
CCOc1ccc(S(=O)(=O)N/N=C(\C)C2CCCCC2)cc1	inactive: -12.8%	
COC(=O)c1ccccc1NC(=O)CSc1nnnn1CC(=O)O	inactive: 0.322%	
CCOc1c2ccc(C(=O)NCc3ccc(C)cc3)cc2nn1CC	inactive: 9.07%	
CC(=O)Nc1ccc(S(=O)(=O)NCCC(=O)NCC2COc3ccccc3O2)cc1 (stereo not given)	inactive: 0.382%	
CCN(CC)Cc1nc2c(c(=O)[nH]1)C(CC)(CC)Cc1ccccc1-2		inconclusive: 29.1 µM [inhibitor, single point]
CCNc1nc(SCC(=O)OC)nc(N2CCOCC2)n1	inactive: -8.11%	
Cc1ccc(S(=O)(=O)N2CCOC2CNC(=O)C(=O)NCCCc2ccccc2)cc1 (stereo not given)		inconclusive: 18.4 µM [inhibitor, partial curve]

SMILES	activity change, negative = growth inhibition	Potency
C=CCOc1ccc(C(=O)Nc2ccccc2C(=O)NCc2cccnc2)cc1		active: 6.51 µM
O=S(=O)(c1cc(Cl)ccc1Cl)N1CCc2ccccc21		inconclusive: 14.6 µM [inhibitor, partial curve, poor fit]
Cn1c(=O)c2c(nc(NCc3ccc4c(c3)OCO4)n2Cc2ccccc2)n(C)c1=O		inconclusive: 20.6 µM [inhibitor, single point]
O=C(CCC(=O)N1CCSc2ccccc21)NCc1cccc(Cl)c1		inconclusive: 32.6 µM [inhibitor, partial curve, poor fit]
CCS(=O)(=O)N1CCCC(C(=O)NCCc2ccccc2)C1 (stereo not given)	inactive: -5.61%	
O=C(Cc1csc(NC(=O)Nc2cccc(Cl)c2)n1)NCc1cccnc1	inactive: -22.5%	
CCCCNC(=O)Cn1c(=O)oc2cc(S(=O)(=O)N3CC(C)CC(C)C3)ccc21 (stereo not given)		active: 11.6 µM
CC(C)(C)Cc1c(-c2ccc(C#N)cc2)nc2c(Cl)cc(C(F)(F)F)cn12		active: 18.4 µM
Cc1ccc(NC(=O)CCc2ccc(S(=O)(=O)N3CCOCC3)cc2)c(Cl)c1	inactive: -26.7%	
O=C(NNC(=O)c1ccc(O)c(Cl)c1)c1cccc(S(=O)(=O)N2CCOCC2)c1	inactive: -18.9%	
COc1cc(/C=N/NC(=O)CN(Cc2ccccc2)S(=O)(=O)c2ccc3c(c2)OCCO3)ccc1O	inactive: -23.6%	
Cc1cc(C)c(S(=O)(=O)c2ccccc2)c(OC(=O)c2cc(F)c(F)cc2Cl)n1		inconclusive: 18.4 µM [inhibitor, single point]
O=C(NC(c1ccc(Cl)cc1)c1c(O)ccc2ccccc12)c1ccccc1 (stereo not given)		inconclusive: 29.1 µM [inhibitor, single point]
Cc1ccc(S(=O)(=O)N2CCC(C(=O)Nc3ccccc3N3CCCC3)CC2)c(C)c1		inconclusive: 29.1 µM [inhibitor, partial curve, poor fit]
O=C(NC1CCCC1)c1cccc2c1C(=O)c1ccc(N3CCCCC3)cc1S2(=O)=O		inconclusive: 16.4 µM [inhibitor, single point]
COc1ccc(OC)c(CN2CCN(C(=O)CCC(=O)c3cccs3)CC2)c1		inconclusive: 23.1 µM [inhibitor, single point]
COc1ccccc1C(=O)N1CCN(c2nc3cc(C)cc(C)c3cc2C#N)CC1		active: 23.1 µM
C[C@H]1CN([C@@H](C)CO)C(=O)c2cccc(NC(=O)C3CC3)c2O[C@H]1CN(C)S(=O)(=O)c1ccccc1	inactive: -29.3%	
Cc1cccc(C)c1NC(=O)CNC(=O)C(C)N1CCN(c2cccc(Cl)c2)CC1 (stereo not given)		inconclusive: 23.1 µM [inhibitor, single point]
CCN(CC)C(=O)CN1C(=O)c2cccc3cccc1c23	inactive: -9.11%	
CCOC(=O)c1ccccc1NC(=O)CSc1ccc(-c2ccccn2)nn1		active: 3.66 µM
COc1ccccc1C(=O)Nc1ccc(S(=O)(=O)Nc2cnc3ccccc3n2)cc1	inactive: -23.5%	
CCOC(=O)C1(Cc2ccccc2)CCCN(C2CCCC2)C1 (stereo not given)	inactive: -16.9%	
COc1ccc(C2(C(=O)Nc3nncs3)CCCC2)cc1		inconclusive: 5.62 µM [inhibitor, full curve]
COCCCNC(=O)c1ccc2c(=O)n(Cc3ccc(OC)cc3)c(=O)[nH]c2c1		inconclusive: 20.6 µM [inhibitor, single point] and inconclusive: 16.4 µM [inhibitor, single point]
